# Reference: ChEMBL document CHEMBL5606458, “ASAP - ZIKV NS2B-NS3 protease fluorescence single point” (2024)
# Among all 2,700 compounds or so, about 160 (5.9%) showed an effect of 50% or more. Some of the results follow.
# Molecular target: Nonstructural protein 3 (Zika virus) (UniProt A0A024AXB9)
# [1] = PRVABC59, Concentration 15.0 uM, Number of replicates 1.0
# [2] = PRVABC59, Concentration 10.0 uM, Number of replicates 1.0
# [3] = PRVABC59, Concentration 50.0 uM, Number of replicates 1.0
# UniProt A0A024AXB9, sequence (A0A024AXB9 as listed by the source): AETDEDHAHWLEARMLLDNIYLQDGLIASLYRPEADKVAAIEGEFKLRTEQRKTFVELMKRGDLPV
structure (smiles),measurement,setting,value
C[C@H](NC(=O)c1cc(Cl)ccc1NS(=O)(=O)c1ccc(Oc2ccccc2Cl)cc1)c1cccc(C(F)(F)F)c1,inhibition,[1],39.3%
OB(O)c1cccc(-c2noc([C@H]3CCN4CCC[C@H]4C3)n2)c1,inhibition,"PRVABC59, Concentration 49.5 uM, Number of replicates 2.0, Standard deviation 0.028602200098645038 %",-3.1%
same,inhibition,"PRVABC59, Concentration 99.01 uM, Number of replicates 2.0, Standard deviation 0.7191400436111959 %",-2.22%
same,inhibition,"PRVABC59, Concentration 198.0 uM, Number of replicates 2.0, Standard deviation 0.04698926852370469 %",-0.756%
CC(C)(C)N(C[C@H](O)c1ccc(O)c(CO)c1)C(=O)c1cc(Cl)ccc1NS(=O)(=O)c1ccc(Oc2ccccc2Cl)cc1,inhibition,[1],14.6%
Cn1ccnc1-c1cc(NC(=O)c2cnn([C@H]3CCCNC3)c2)[nH]n1,inhibition,"PRVABC59, Concentration 49.5 uM, Number of replicates 2.0, Standard deviation 0.31193658084925274 %",6.99%
same,inhibition,"PRVABC59, Concentration 99.01 uM, Number of replicates 2.0, Standard deviation 0.6162651497801069 %",9.53%
same,inhibition,"PRVABC59, Concentration 198.0 uM, Number of replicates 2.0, Standard deviation 0.2510711368029124 %",10.9%
NCCOc1cccc2c1CCB(O)O2,inhibition,"PRVABC59, Concentration 49.5 uM, Number of replicates 2.0, Standard deviation 0.29139016078758595 %",-3.64%
same,inhibition,"PRVABC59, Concentration 99.01 uM, Number of replicates 2.0, Standard deviation 0.012591118111538527 %",-4.36%
same,inhibition,"PRVABC59, Concentration 198.0 uM, Number of replicates 2.0, Standard deviation 0.9209367940578399 %",-1.98%
O=C(c1cc(Cl)ccc1NS(=O)(=O)c1ccc(Oc2ccccc2Cl)cc1)N1CCN(CCOc2ccccc2)CC1,inhibition,[1],22%
Cc1cc(CO)c2cccc(NC(=O)CC3CCNCC3)c2n1,inhibition,"PRVABC59, Concentration 49.95 uM, Number of replicates 2.0, Standard deviation 2.2586421938534733 %",41.5%
same,inhibition,"PRVABC59, Concentration 99.9 uM, Number of replicates 2.0, Standard deviation 1.48045087514324 %",81%
O=C(c1cc(Cl)ccc1NS(=O)(=O)c1ccc(Oc2ccccc2Cl)cc1)N1CCN(Cc2cc(F)ccc2F)CC1,inhibition,[1],17.7%
Cc1cc(CCNC(=O)[C@]2(c3ccc(F)cc3)CCCNC2)c2cn[nH]c2c1,inhibition,"PRVABC59, Concentration 49.5 uM, Number of replicates 2.0, Standard deviation 1.1507413897454284 %",2.45%
same,inhibition,"PRVABC59, Concentration 99.01 uM, Number of replicates 2.0, Standard deviation 0.3594880040383957 %",4.86%
same,inhibition,"PRVABC59, Concentration 198.0 uM, Number of replicates 2.0, Standard deviation 2.037097453243353 %",8.97%
N#Cc1cccnc1N1CCN(C(=O)c2cc(Cl)ccc2NS(=O)(=O)c2ccc(Oc3ccccc3Cl)cc2)CC1,inhibition,[1],-2.76%
Cc1cnccc1NC(=O)c1cccc(C(F)(F)F)n1,inhibition,"PRVABC59, Concentration 49.5 uM, Number of replicates 2.0, Standard deviation 1.2676468851520968 %",-3.2%
same,inhibition,"PRVABC59, Concentration 99.01 uM, Number of replicates 2.0, Standard deviation 0.2009180729488889 %",-4.6%
same,inhibition,"PRVABC59, Concentration 198.0 uM, Number of replicates 2.0, Standard deviation 0.32519699091514426 %",-5.02%
O=Cc1ccc(N2CCC(C(=O)NCc3ccccc3Br)CC2)cc1,inhibition,[2],21.6%
COc1ccc(S(=O)(=O)N[C@H]2CC[C@H](C(=O)Nc3nc4ccccc4s3)CC2)cc1,inhibition,"PRVABC59, Concentration 49.5 uM, Number of replicates 2.0, Standard deviation 1.516279405300169 %",4.79%
same,inhibition,"PRVABC59, Concentration 99.01 uM, Number of replicates 2.0, Standard deviation 2.0429029287446374 %",5.82%
same,inhibition,"PRVABC59, Concentration 198.0 uM, Number of replicates 2.0, Standard deviation 2.7145967477005732 %",5.18%
C[C@H]1CCCCN1CCCNC(=O)c1cc(Cl)ccc1NS(=O)(=O)c1ccc(Oc2ccccc2Cl)cc1,inhibition,[1],18%
O=Cc1ccc(N2CCC(C(=O)Nc3ccccc3I)CC2)cc1,inhibition,[3],24.9%
Cc1cc(Br)cc(NC(=O)c2cc(Cl)ccc2NS(=O)(=O)c2ccc(Oc3ccccc3Cl)cc2)c1,inhibition,[1],53.6%
O=C(NC1CCC(C(F)(F)F)CC1)c1cc(Cl)ccc1NS(=O)(=O)c1ccc(Oc2ccccc2Cl)cc1 (stereo unspecified),inhibition,[1],30.2%
O=C(c1cc(Cl)ccc1NS(=O)(=O)c1ccc(Oc2ccccc2Cl)cc1)N1CCN(c2ncccn2)CC1,inhibition,[1],7.48%
O=Cc1ccc(N2CCC(C(=O)N3CCN(C4CCCC4)CC3)CC2)cc1,inhibition,[3],26.3%
O=Cc1ccc(N2CCC(C(=O)Nc3ccc(Oc4ccc(Cl)cc4)cc3)CC2)cc1,inhibition,[3],10.6%
Cc1cc(Br)cc(C)c1NC(=O)c1cc(Cl)ccc1NS(=O)(=O)c1ccc(Oc2ccccc2Cl)cc1,inhibition,[1],24.9%
Cc1cc(CO)c2cccc(Cc3cccc(NC(=O)[C@H](N)CCO)c3)c2n1,inhibition,"PRVABC59, Concentration 49.95 uM, Number of replicates 2.0, Standard deviation 2.896018531465293 %",45.5%
same,inhibition,"PRVABC59, Concentration 99.9 uM, Number of replicates 2.0, Standard deviation 2.794226811640934 %",46.8%
Cc1cc(CO)c2cccc(Cc3ccccc3NC(=O)[C@@H]3C[C@@H](O)CN3)c2n1,inhibition,"PRVABC59, Concentration 49.95 uM, Number of replicates 2.0, Standard deviation 1.3843880921432699 %",8.48%
same,inhibition,"PRVABC59, Concentration 99.9 uM, Number of replicates 2.0, Standard deviation 1.3436712019086534 %",23.6%
Cc1cc(CO)c2cccc(Cc3cccc(C(=O)NCc4sccc4C)c3)c2n1,inhibition,"PRVABC59, Concentration 49.95 uM, Number of replicates 2.0, Standard deviation 1.2898911488591764 %",-5.17%
same,inhibition,"PRVABC59, Concentration 99.9 uM, Number of replicates 2.0, Standard deviation 0.14681702950115297 %",6.55%
O=C(NC1C2CC3CC(C2)CC1C3)c1cc(Cl)ccc1NS(=O)(=O)c1ccc(Oc2ccccc2Cl)cc1 (stereo unspecified),inhibition,[1],44.9%
NCc1cccc(NC(=O)C2(NC(=O)OCc3ccccc3)CC(F)(F)C2)c1,inhibition,"PRVABC59, Concentration 49.5 uM, Number of replicates 2.0, Standard deviation 1.698538014742072 %",0.243%
same,inhibition,"PRVABC59, Concentration 99.01 uM, Number of replicates 2.0, Standard deviation 0.6655619582597831 %",2.77%
same,inhibition,"PRVABC59, Concentration 198.0 uM, Number of replicates 2.0, Standard deviation 0.8342115610517613 %",11.1%
COc1cccc(-c2cc(CNC(=O)c3cc(Cl)ccc3NS(=O)(=O)c3ccc(Oc4ccccc4Cl)cc3)on2)c1,inhibition,[1],44.7%
CNC(=O)c1cncnc1NS(=O)(=O)c1ccc(Oc2ccccc2Cl)cc1,inhibition,"PRVABC59, Concentration 49.5 uM, Number of replicates 2.0, Standard deviation 0.35115742654912646 %",12.9%
O=Cc1ccc(N2CCC(C(=O)NCCc3ccc(Cl)c(Cl)c3)CC2)cc1,inhibition,[3],-5.07%
Cc1cccc(CN2CCN(C(=O)c3cc(Cl)ccc3NS(=O)(=O)c3ccc(Oc4ccccc4Cl)cc3)CC2)c1,inhibition,[1],9.71%
CC[C@H](NC(=O)C1CCN(c2ccc(C=O)cc2)CC1)c1cccc(C)n1,inhibition,[2],25.5%
O=Cc1ccc(N2CCC(C(=O)N3CCc4ccccc4[C@H]3c3ccccc3)CC2)cc1,inhibition,[3],21.9%
COc1c(Cl)cccc1NC(=O)c1cc(Cl)ccc1NS(=O)(=O)c1ccc(Oc2ccccc2Cl)cc1,inhibition,[1],38.1%
Cc1cnccc1NC(=O)CNCC(C)C,inhibition,"PRVABC59, Concentration 49.5 uM, Number of replicates 2.0, Standard deviation 0.771833635199759 %",-2.19%
same,inhibition,"PRVABC59, Concentration 99.01 uM, Number of replicates 2.0, Standard deviation 0.34752723419318615 %",-2.29%
same,inhibition,"PRVABC59, Concentration 198.0 uM, Number of replicates 2.0, Standard deviation 0.5718035120552976 %",0.253%
Cc1cc(NC(=O)c2[nH]c([C@H]3CCCNC3)nc2C)n[nH]1,inhibition,"PRVABC59, Concentration 49.5 uM, Number of replicates 2.0, Standard deviation 0.8509605500625965 %",-4.49%
same,inhibition,"PRVABC59, Concentration 99.01 uM, Number of replicates 2.0, Standard deviation 1.1083243799355795 %",-3.82%
same,inhibition,"PRVABC59, Concentration 198.0 uM, Number of replicates 2.0, Standard deviation 1.5192761305229905 %",-2.17%
O=C(c1cc(Cl)ccc1NS(=O)(=O)c1ccc(Oc2ccccc2Cl)cc1)N1CCCN(c2ccc(C(F)(F)F)cn2)CC1,inhibition,[1],30%
O=C(Nc1ccccc1-c1ccccc1)c1cc(Cl)ccc1NS(=O)(=O)c1ccc(Oc2ccccc2Cl)cc1,inhibition,[1],36.2%
O=Cc1ccc(N2CCC(C(=O)NC3CCC(C(F)(F)F)CC3)CC2)cc1 (stereo unspecified),inhibition,[3],31.3%
O=C(NCCc1cc(F)cc(F)c1)c1cc(Cl)ccc1NS(=O)(=O)c1ccc(Oc2ccccc2Cl)cc1,inhibition,[1],32.7%
Cc1cccc(NC(=O)CNC(=O)c2cc(Cl)ccc2NS(=O)(=O)c2ccc(Oc3ccccc3Cl)cc2)c1C,inhibition,[1],42%
CN(C)C(=O)CN1CCN(C(=O)C2CCN(c3ccc(C=O)cc3)CC2)CC1,inhibition,[3],21.2%
COc1ccccc1N1CCN(C(=O)Cc2cccc3c(CO)cc(C)nc23)CC1,inhibition,"PRVABC59, Concentration 99.9 uM, Number of replicates 2.0, Standard deviation 1.6569335540246648 %",-9.63%
Cc1cc(Br)c(NC(=O)C2CCN(c3ccc(C=O)cc3)CC2)c([N+](=O)[O-])c1,inhibition,[3],23.8%
COc1ccccc1OCCn1cc(C2CCNCC2)c(C)n1,inhibition,"PRVABC59, Concentration 49.5 uM, Number of replicates 2.0, Standard deviation 3.6020232568569774 %",-1.12%
same,inhibition,"PRVABC59, Concentration 99.01 uM, Number of replicates 2.0, Standard deviation 3.6538062236366144 %",-0.198%
same,inhibition,"PRVABC59, Concentration 198.0 uM, Number of replicates 2.0, Standard deviation 5.317075123342042 %",1.08%
Cc1nccn1-c1ccc(NC(=O)c2cc(Cl)ccc2NS(=O)(=O)c2ccc(Oc3ccccc3Cl)cc2)cc1,inhibition,[1],43.8%
N#Cc1c(Cl)cccc1NC(=O)c1cc(Cl)ccc1NS(=O)(=O)c1ccc(Oc2ccccc2Cl)cc1,inhibition,[1],22.8%
O=Cc1ccc(N2CCC(C(=O)NCc3ccc(F)cc3C(F)(F)F)CC2)cc1,inhibition,[2],25.3%
Cc1cc(S(=O)(=O)NCCNC(=O)c2ccc(O)c(NC(=O)c3ccncc3F)c2C)c(C)s1,inhibition,"PRVABC59, Concentration 49.5 uM, Number of replicates 2.0, Standard deviation 1.3575786503928842 %",-0.106%
same,inhibition,"PRVABC59, Concentration 99.01 uM, Number of replicates 2.0, Standard deviation 1.9146004618852894 %",0.603%
same,inhibition,"PRVABC59, Concentration 198.0 uM, Number of replicates 2.0, Standard deviation 1.9819612621227651 %",1.47%
COc1cccc(-c2ccccc2C(=O)Nc2cnn(C)c2)c1F,inhibition,"PRVABC59, Concentration 49.5 uM, Number of replicates 2.0, Standard deviation 0.655169978409846 %",-2.02%
same,inhibition,"PRVABC59, Concentration 99.01 uM, Number of replicates 2.0, Standard deviation 0.33643856693736396 %",-2.27%
same,inhibition,"PRVABC59, Concentration 198.0 uM, Number of replicates 2.0, Standard deviation 0.6973950185443509 %",-0.464%
O=C(NCc1cc(C(F)(F)F)ccc1C(F)(F)F)c1cc(Cl)ccc1NS(=O)(=O)c1ccc(Oc2ccccc2Cl)cc1,inhibition,[1],31.9%
Cc1cc(CO)c2cccc(C[C@H](NC(=O)c3nc(N)n[nH]3)C(=O)O)c2n1,inhibition,"PRVABC59, Concentration 49.95 uM, Number of replicates 2.0, Standard deviation 1.7513324927150802 %",-1.22%
same,inhibition,"PRVABC59, Concentration 99.9 uM, Number of replicates 2.0, Standard deviation 0.7426854648255038 %",4.65%
CC[C@H]1c2cccn2CCN1C(=O)c1cc(Cl)ccc1NS(=O)(=O)c1ccc(Oc2ccccc2Cl)cc1,inhibition,[1],16.5%
